Measured values reported in the BET-seq Pho4 binding data (Le et al. 2018).
This is one part of the list. The energies were worked out here from pooled read counts, against the library average; single values are noisy.

The sequences below were run against T1, Pho4 (S. cerevisiae) (UniProt P07270) (assay: relative binding free energy (BET-seq); higher = weaker binding). Details: reference: library average.
T1 sequence: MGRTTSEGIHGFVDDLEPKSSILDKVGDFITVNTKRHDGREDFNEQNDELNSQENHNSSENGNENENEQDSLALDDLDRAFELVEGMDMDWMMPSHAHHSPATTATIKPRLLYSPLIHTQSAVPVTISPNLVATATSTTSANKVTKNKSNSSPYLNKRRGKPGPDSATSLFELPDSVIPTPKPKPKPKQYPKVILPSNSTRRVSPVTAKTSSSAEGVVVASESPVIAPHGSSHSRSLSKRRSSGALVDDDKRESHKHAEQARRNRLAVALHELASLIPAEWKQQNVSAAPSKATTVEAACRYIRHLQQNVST

Sequence	relative binding free energy
GGTAGCACGTGGCTCG	-0.07 kcal/mol
CAGGGCACGTGGTAAG	-0.01 kcal/mol
GGGCTCACGTGTTGGA	0.19 kcal/mol
GGTGGCACGTGCAGAT	-0.13 kcal/mol
GGTTACACGTGGGGTG	0.02 kcal/mol
ACGGGCACGTGGAGGT	-0.03 kcal/mol
TGAATCACGTGCTTGG	0.04 kcal/mol
GAGAGCACGTGTGAGG	0.09 kcal/mol
GGTAACACGTGATAGG	0.32 kcal/mol
AGACGCACGTGGGGGA	-0.23 kcal/mol
AGGAACACGTGGTAGA	-0.03 kcal/mol
AGTCGCACGTGAGGAT	0.18 kcal/mol
GTTTGCACGTGCAGGT	0.15 kcal/mol
TTCTTCACGTGGGATT	0.17 kcal/mol
TTGGACACGTGTCATA	0.07 kcal/mol
AATTTCACGTGGATTA	0.2 kcal/mol
GGGAACACGTGCGGTG	-0.07 kcal/mol
AGATTCACGTGGTTGT	0.31 kcal/mol
CTTGACACGTGGTTTA	-0.16 kcal/mol
ATCAACACGTGGGTTG	-0.23 kcal/mol
TTGAGCACGTGCGTTT	-0.06 kcal/mol
AGGTACACGTGACTTT	0.29 kcal/mol
GGGGACACGTGGTGGA	0.02 kcal/mol

Sequence	relative binding free energy
GTTGGCACGTGGCATT	-0.13 kcal/mol
TGCGGCACGTGGCGGG	-0.14 kcal/mol
AAAATCACGTGTAGTT	0.19 kcal/mol
TTGCTCACGTGTAAGG	0.34 kcal/mol
TTGAGCACGTGTAGGT	-0.05 kcal/mol
TGCGCCACGTGGGGGT	-0.23 kcal/mol
AATGGCACGTGTTATT	0.01 kcal/mol
TAGGACACGTGATGGT	0.06 kcal/mol
TTGCGCACGTGGTTAG	-0.23 kcal/mol
AGTTTCACGTGCGAGT	0.45 kcal/mol
CTTAACACGTGGCGGT	0.01 kcal/mol
CCCGTCACGTGGTGGG	-0.12 kcal/mol
GCTTTCACGTGAGATT	0.37 kcal/mol
TATCTCACGTGGTGGT	0.17 kcal/mol
TTGTGCACGTGGTCAC	-0.06 kcal/mol
GGAGTCACGTGATTAT	0.19 kcal/mol
TGCATCACGTGGGGAG	-0.05 kcal/mol
TTATTCACGTGGGTTA	0.21 kcal/mol
TCTTACACGTGTTTTT	0.06 kcal/mol
TGTAGCACGTGCCTTG	-0.14 kcal/mol
TCATGCACGTGGGTAA	-0.21 kcal/mol
TTGCGCACGTGGTCGG	-0.25 kcal/mol
TATATCACGTGGGAGT	0.04 kcal/mol

Sequence	relative binding free energy
GGGCTCACGTGAGTTG	0.38 kcal/mol
GATTTCACGTGTCATT	0.31 kcal/mol
GTGTTCACGTGTTGGT	0.31 kcal/mol
GTGTTCACGTGTTATG	0.25 kcal/mol
ATTGGCACGTGGTGTT	-0.24 kcal/mol
TAGCTCACGTGGCTGT	0.27 kcal/mol
ATAAGCACGTGAAGTT	0.14 kcal/mol
GAATGCACGTGAGTCG	0.4 kcal/mol
GGGGGCACGTGCTATG	-0.13 kcal/mol
ATTACCACGTGTAGTT	0.05 kcal/mol
ATAGGCACGTGTGTTG	-0.05 kcal/mol
ATGCGCACGTGTTAAA	0.08 kcal/mol
TTGGTCACGTGTGGTA	0.17 kcal/mol
TGTGACACGTGGCGTG	-0.14 kcal/mol
TGTTTCACGTGTCGGC	0.29 kcal/mol
TGATACACGTGTTGGT	0.02 kcal/mol
AGAAGCACGTGGCTTT	-0.01 kcal/mol
GGGAGCACGTGTAGGA	-0.15 kcal/mol
GTAGGCACGTGAGAAT	0.13 kcal/mol
TGTGACACGTGGCATT	-0.08 kcal/mol
TGTTACACGTGGAGAA	0.12 kcal/mol
CCGCACACGTGGGGGG	-0.05 kcal/mol
TGTTGCACGTGAGGAG	0.24 kcal/mol

Sequence	relative binding free energy
ACTTTCACGTGTATTT	0.13 kcal/mol
TTTCGCACGTGGGTGA	-0.1 kcal/mol
GAAATCACGTGGCGGT	0.18 kcal/mol
AATTCCACGTGGGTGT	-0.03 kcal/mol
GTCTGCACGTGCGGTT	0.12 kcal/mol
AAAAGCACGTGTGGTT	-0.03 kcal/mol
ACGGTCACGTGTTTGA	0.17 kcal/mol
ATCTTCACGTGATGGG	0.23 kcal/mol
AGTTACACGTGGACAG	0.27 kcal/mol
AGAAACACGTGGGTTT	0.04 kcal/mol
TGTGGCACGTGCTTAG	-0.24 kcal/mol
GTAGTCACGTGGCTCT	0.15 kcal/mol
TGGGGCACGTGCAATG	-0.11 kcal/mol
TGGAGCACGTGTTGGC	0.04 kcal/mol
AAATTCACGTGTTGTA	0.36 kcal/mol
GGGTCCACGTGGTCAT	0.11 kcal/mol
CTGGGCACGTGTATTT	0.1 kcal/mol
ATGTGCACGTGAATCG	0.14 kcal/mol
GGCAGCACGTGAGGTA	0.17 kcal/mol
CTTTACACGTGAGGTT	0.29 kcal/mol
CTGCACACGTGTGTGG	-0.05 kcal/mol
TGCTACACGTGGGTGC	0.05 kcal/mol
CAAGTCACGTGTGTGG	0.15 kcal/mol

Sequence	relative binding free energy
TCCTGCACGTGAGGGT	0.13 kcal/mol
GGTCACACGTGGTCGG	0.06 kcal/mol
TGGTACACGTGTACTG	0.1 kcal/mol
AAAGTCACGTGGTAAT	-0.03 kcal/mol
CTCAGCACGTGTGTGG	-0.18 kcal/mol
CTGGTCACGTGGGATT	0.08 kcal/mol
TTAGTCACGTGTGTCG	0.21 kcal/mol
TGAAGCACGTGCTAGT	-0.14 kcal/mol
AATTGCACGTGACGGT	-0.05 kcal/mol
AATTGCACGTGATTTT	0.09 kcal/mol
CTAATCACGTGAGTTG	0.27 kcal/mol
GTTGTCACGTGTTTGA	0.06 kcal/mol
AATGCCACGTGTGGGT	-0.05 kcal/mol
AGGTACACGTGGTGTG	-0.13 kcal/mol
ATAGGCACGTGGTTCT	-0.32 kcal/mol
GTGCACACGTGTTTTT	0.3 kcal/mol
GCAAGCACGTGGTAGT	-0.12 kcal/mol
CATGGCACGTGAGATT	0.25 kcal/mol
GGTGTCACGTGTTGGC	0.12 kcal/mol
TCCGTCACGTGTAGTG	0.13 kcal/mol
GGCGACACGTGGGGCA	-0.08 kcal/mol
AAAGGCACGTGTGCGG	-0.27 kcal/mol
CGTTCCACGTGTTGGG	0.22 kcal/mol
